# Data: the supplement of paper PMC12632987
# In all, about 2,300 sequences were measured (“median log2 fold change of GCK-ALFA target abundance (FLAG IP / Myc IP barcode read proportion)”: median about 0.095, lowest 2% from about -0.47 on). This is one part of the list.
# B1: LC3A_3_1863 (protein)
# chain: MEEIKEEILELLRSLGRSEETIEAAEELANALIERGYEEALKTLLEELKKLADVPDEILLAMFEDILRALKEENLNEEEVIKLIKEEARIARNEHEIEEL
# B2: LC3A_free_8_2448 (protein)
# chain: KTKEVVNKVTALLDELEEEVTKKAKELGLSRLDILEMELLIGSAKIELISNVDKSIEEIKKIAEEELEEIIEFAKTLSEELAEIVEKYKEKILKLIEEAL
# B3: LC3A_28_977 (protein)
# chain: SAIEEALAKVLAEAEAAAAAGEPAVITITVPGDATEEEIEKVIEALRRVAEILKDVPGAAIIIDLDGDVSEENQQKLMEAAEEVEEKYPNITVIIALDEK
# B4: LC3A_3_1818 (protein)
# chain: LEERVEEAERLLRERGASEETLEAFREAAEALRERGYEKALETLIELARELADLPSELLLALFEDVLELVETSDDDEETITARIKEIAATHRNEAEIIEL
# B5: LC3A_28_856 (protein)
# chain: STTDASIAAARAELAAAVAAGTEVTITITVTEDVTEAQVERVIAAIEEAAAASAQVPRLDVIVDVDGKVDPAHLKRIAEAGDEASERNPNLTVIIALDEE
# B6: LC3A_45_1980 (protein)
# chain: MYEATVDILVPRELAEKAKAAALEAMDEIEKKYGDKVKVDRERLDASYEASKDEEDVYLEVRIFAPNKELALDAADELEDYLREKLGDRVAAIISVKEVP
# B7: LC3A_28_1134 (protein)
# chain: SAAVEAAKAQLDKDAEADKDKEEVYLTVNVSGTITVEEAKEIMDYVEEIVEKFKDKKKIYVVVNANEPISQEVLDTILDGGERLEKKFPNVSVIVALPEG
# B8: LC3A_3_1615 (protein)
# chain: LEELLKEAIEKLKEAGKPEEVLELLKEVVELLKEKGYEEAAKTLLEEVIENVDLSSDIMLDFLEEVKYLVETENLSEEELTERIKELARIARSEQEIIEL
# B9: LC3A_28_1165 (protein)
# chain: SELEESIEKALKEAKEAAAKGVPATIVIKVPGGITQEETEKVIKAMEEIAELLKDIPGAAIVIDVDSGVKQENLDKLMKKAEEIEKKYPNITVIIALDED
# B10: LC3A_free_8_2522 (protein)
# chain: SNKKLTEAAVEILDELEKKVVELLKSKGASRLEILEAELLIGSIIAEVISLVDKSPEEILKSIREGLERLVKELEKYKEEIKKLAEEALKKIEEKAKELE
# B11: LC3A_free_46_2350 (protein)
# chain: VKAEIEIDLLADDEETLKAAVEAIKEAIKEIAKKYNLEVEIEEEIEKLPDGSYYARINITLKGKDLEDVKAAVNELINKIEEIAKKYGVSAVISYEIKDI
# B12: LC3A_28_720 (protein)
# chain: GSLDASIEAAIAEAKAAAAAGEEAVIEITVPGDATEEDIEKVIKALEEIAEITKDLKRTHIIINVDGGVKQEHIDKLLDAAEEIEKKYPNVTVIFALDEE
# B13: LC3A_28_995 (protein)
# chain: SELEKQLEEALKEAKKAKEKGEPTVITIKIPGSANKEDIELVIKTLEEIAEILKDVKGSAIIIDIDGKLDEELKNLIIDKAEEIEEKYPNITVIIALDED
# B14: LC3A_28_1173 (protein)
# chain: SSVEENIEKALEEARKAKERKEPTVITINVPSGATQEEIDKVIEAMREIAELLKDIPGSAIIINVAGGVKQEHIDKLMEEAEEIEEKYPNVSVIIALDED
# B15: LC3A_127_174 (protein)
# chain: EKEKLLKEIEKLAEKILELLDKPDFDVEEIEKLLEKIIKLAKELLKLDPSAEPILETAEAAKKTLEQYKKAPEEQKEDLREHLSMLVEGLLIEVLSLLLK
# B16: LC3A_127_202 (protein)
# chain: SRRELLEEALELAEEALRALQRIPEEGEAALREARELLERLLELLAQLPELAEAAADAQQALAQLDQLPQLSPAEREEAIEHLLMIVDGIAIEVESALLR
# B17: LC3A_28_1183 (protein)
# chain: SALEENLKAAIAEAKKAAAAGEPAVITITVPGDADEEDIEKVIEALEEIAEILKDIKGSAIIIDLEKGVKQEHIDKLAEKADEIEKKYPNVTVILALEEE
# B18: LC3A_free_8_2482 (protein)
# chain: SSQETVDTVVKLLSKGEEELVKKAKELGKSRLDILELELLYGSVIATAISLSDASLEEIEKEIEEGLEDVLEKAKELGEEIAEIAEKHAKEVLEAIEKAK
# B19: LC3A_132_287 (protein)
# chain: GEEEKKRVVEKVKKIAEEAKKNIDNPEEVRKLLEELKKYLEEVKKTESPEVVRAAAETAAEELEELSELAEEKGKEDLALELDSLAIEAESWALEAEEAL
# B20: LC3A_28_1125 (protein)
# chain: SARREAWLAALAEAKERAERGEDVVLELTATGEDTEEDVDFLLEVLEEGAAYLSERGQSSILLDIDGSLPQELRDYLIDRADEIEARYPSVNIVIALEED
# B21: LC3A_28_822 (protein)
# chain: SEVEKRNEEALKEAKELAEKGEEKTITITVKSSDTPEDVELIAETIKKIAEILKPLKSATILIDLEEPISPESLKLLADTGEEVEKKYPNITVIIALPED
# B22: LC3A_127_220 (protein)
# chain: MLEELLELAEEAARLAWELVEDPSLDFEEALERIKELLKKALELAEKAGLPEEVLEDIKEALKLVEEAREADEEERKELLERAALLMDGVAIEVESLILK
# B23: LC3A_3_1420 (protein)
# chain: MEEELERALEELREAGWSEETLEALREVVEALLERGAEEEARRVLELVLENKDISSEDLLEVLREVLELLKTPGVSPEEAVERLEELLRIARNEQEIEEL
# B24: LC3A_127_209 (protein)
# chain: EKEKLLKEAEKLAQKALEALQKVPKEGEKALKEAQKLFEELIKVLEQLPELKEALEDAKQALEQLKQLPKLNEAEREEAIEHIEMIAEGILIDVELALLK
# B25: LC3A_45_1941 (protein)
# chain: MKKYRAVIDILFEGDDEELEELKEIAKKIAEKNGVELKIDEELNKKLNEQDKDEGYKYLRLELIGEDEEKVLDTADEIVDEMIKYTNGKVSAIISFEEIE
# B26: LC3A_free_0_2125 (protein)
# chain: HMVKGRVTIVAIEREPKHSAEEVREVLEKVAKEITEKYGAKVEVEVKTIDGRNVGTLTVEVEAESEEELLEIADEIEDLVEKAFKEAGIDAEIYTSVEFL
# B27: LC3A_free_0_2111 (protein)
# chain: KVTVVEVVAISDEPVSEEKREKLRKFAEELAEEISKKYNAETKVELKTVDGRTILTITIKSENLTIDEGIEIAREIADKIEEKFKELGIDATIYESVYVE
# B28: LC3A_28_1196 (protein)
# chain: SVADEVIEEIRRQAEEALREGDGAVIEVNIPSTLSHEGIKRIVAEIKREAERLKHLERVSIIINVESGVSQEDIDLIADTGEEIEKKYPNVTVIIALDED
# B29: LC3A_17_553 (protein)
# chain: EEALERALEELRKRVREILDSAPWVSEETRERVVRLAEEALREAAEADETEALGILLELQDEVFDLLEEAGAPSEDEALLVAGSVQDAAEEALRRIREAR
# Biological target: MAP1LC3A, Q9H492
# Test: median log2 fold change of GCK-ALFA target abundance (FLAG IP / Myc IP barcode read proportion) (log2 ratio); each designed protein is fused to an ALFA-tag nanobody in HEK293 cells to bring the named protein to FLAG-tagged glucokinase (GCK); Myc marks an untargeted standard; higher = target protein stabilised (more abundant)
# Settings: target protein: 3xFLAG-MCP-GCK-ALFA reporter; HEK293 landing pad (RPLP)
# Outline: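 Binders fused to an ALFA nanobody were recombined as a library into HEK293 landing-pad cells, which were induced with 2 μg mL^−1 doxycycline and then transfected to express a FLAG-tagged target and a Myc-tagged standard. After 48 h, circular RNA barcodes recovered by anti-FLAG and anti-Myc immunoprecipitation of lysates were reverse transcribed, amplified and sequenced. Each binder's target abundance is the median log2 ratio of FLAG to Myc barcode read proportions, from barcodes present at ≥10^−7 in both replicates, binders carrying ≥3 barcodes per replicate, a 10^−6 pseudocount and pooled replicates.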
row,Binder,median log2 fold change
1,B1,0.246
2,B2,-0.109
3,B3,-0.133
4,B4,0.227
5,B5,0.255
6,B6,0.132
7,B7,-0.163
8,B8,0.144
9,B9,0.448
10,B10,0.213
11,B11,0.165
12,B12,-0.195
13,B13,0.0283
14,B14,0.17
15,B15,0.238
16,B16,0.0531
17,B17,-0.0581
18,B18,0.146
19,B19,0.0725
20,B20,-0.312
21,B21,0.274
22,B22,-0.0623
23,B23,0.3
24,B24,0.145
25,B25,-0.0992
26,B26,0.025
27,B27,-0.0422
28,B28,0.291
29,B29,0.0433
